Laboratory results taken from patent US12043670B2, “Anti-BCMA antibody-drug conjugates and methods of use” (Eisai R&D Management Co., Ltd., priority 2020, dated 2024).

B1: AB200-R1a-Fab_Vk18 (antibody)
heavy: QVQLVQSGAEVKKPGSSVKVSCKASGGTFSNYWMHWVRQAPGQGLEWMGATYRGHSDTYYNQKFKGRVTITADKSTSTAYMELSSLRSEDTAVYYCARGAIYHGYDVLDNWGQGTLVTVSSASTKGPSVFPLAPSSKSTSGGTAALGCLVKDYFPEPVTVSWNSGALTSGVHTFPAVLQSSGLYSLSSVVTVPSSSLGTQTYICNVNHKPSNTKVDKKVEPKSC
light: DIQMTQSPSSLSASVGDRVTITCTASQDISNYLNWYQQKPGKAPKLLIYYTSDLHIGVPSRFSGSGSGTDFTLTISSLQPEDFATYYCQQYRKLPWTFGQGTKLEIKRTVAAPSVFIFPPSDEQLKSGTASVVCLLNNFYPREAKVQWKVDNALQSGNSQESVTEQDSKDSTYSLSSTLTLSKADYEKHKVYACEVTHQGLSSPVTKSFNRGEC
B2: AB200-R1a-Fab_Vk19 (antibody)
heavy: QVQLVQSGAEVKKPGSSVKVSCKASGGTFSNYWMHWVRQAPGQGLEWMGATYRGHSDTYYNQKFKGRVTITADKSTSTAYMELSSLRSEDTAVYYCARGAIYHGYDVLDNWGQGTLVTVSSASTKGPSVFPLAPSSKSTSGGTAALGCLVKDYFPEPVTVSWNSGALTSGVHTFPAVLQSSGLYSLSSVVTVPSSSLGTQTYICNVNHKPSNTKVDKKVEPKSC
light: DIQMTQSPSSLSASVGDRVTITCSASNDISNYINWYQQKPGKAPKLLIYYTSNLHSGVPSRFSGSGSGTDFTLTISSLQPEDFATYYCQQFRKLPWTFGQGTKLEIKRTVAAPSVFIFPPSDEQLKSGTASVVCLLNNFYPREAKVQWKVDNALQSGNSQESVTEQDSKDSTYSLSSTLTLSKADYEKHKVYACEVTHQGLSSPVTKSFNRGEC
B3: AB200-R1a-Fab_Vk20 (antibody)
heavy: QVQLVQSGAEVKKPGSSVKVSCKASGGTFSNYWMHWVRQAPGQGLEWMGATYRGHSDTYYNQKFKGRVTITADKSTSTAYMELSSLRSEDTAVYYCARGAIYHGYDVLDNWGQGTLVTVSSASTKGPSVFPLAPSSKSTSGGTAALGCLVKDYFPEPVTVSWNSGALTSGVHTFPAVLQSSGLYSLSSVVTVPSSSLGTQTYICNVNHKPSNTKVDKKVEPKSC
light: DIQMTQSPSSLSASVGDRVTITCSASQDISNFLNWYQQKPGKAPKLLIYYTSDLHSGVPSRFSGSGSGTDFTLTISSLQPEDFATYYCQQYYKLPWTFGQGTKLEIKRTVAAPSVFIFPPSDEQLKSGTASVVCLLNNFYPREAKVQWKVDNALQSGNSQESVTEQDSKDSTYSLSSTLTLSKADYEKHKVYACEVTHQGLSSPVTKSFNRGEC
B4: AB200-R1a-Fab_Vk21 (antibody)
heavy: QVQLVQSGAEVKKPGSSVKVSCKASGGTFSNYWMHWVRQAPGQGLEWMGATYRGHSDTYYNQKFKGRVTITADKSTSTAYMELSSLRSEDTAVYYCARGAIYHGYDVLDNWGQGTLVTVSSASTKGPSVFPLAPSSKSTSGGTAALGCLVKDYFPEPVTVSWNSGALTSGVHTFPAVLQSSGLYSLSSVVTVPSSSLGTQTYICNVNHKPSNTKVDKKVEPKSC
light: DIQMTQSPSSLSASVGDRVTITCSASQDISNYLNWYQQKPGKAPKLLIYYTSNLHSGVPSRFSGSGSGTDFTLTISSLQPEDFATYYCHQYKKTPWTFGQGTKLEIKRTVAAPSVFIFPPSDEQLKSGTASVVCLLNNFYPREAKVQWKVDNALQSGNSQESVTEQDSKDSTYSLSSTLTLSKADYEKHKVYACEVTHQGLSSPVTKSFNRGEC
B5: AB200-R1a-Fab_Vk22 (antibody)
heavy: QVQLVQSGAEVKKPGSSVKVSCKASGGTFSNYWMHWVRQAPGQGLEWMGATYRGHSDTYYNQKFKGRVTITADKSTSTAYMELSSLRSEDTAVYYCARGAIYHGYDVLDNWGQGTLVTVSSASTKGPSVFPLAPSSKSTSGGTAALGCLVKDYFPEPVTVSWNSGALTSGVHTFPAVLQSSGLYSLSSVVTVPSSSLGTQTYICNVNHKPSNTKVDKKVEPKSC
light: DIQMTQSPSSLSASVGDRVTITCRASQDISNYLNWYQQKPGKAPKLLIYYTSNLHSGVPSRFSGSGSGTDFTLTISSLQPEDFATYYCQQYRSIPWTFGQGTKLEIKRTVAAPSVFIFPPSDEQLKSGTASVVCLLNNFYPREAKVQWKVDNALQSGNSQESVTEQDSKDSTYSLSSTLTLSKADYEKHKVYACEVTHQGLSSPVTKSFNRGEC
B6: AB200-R1a-Fab_Vk23 (antibody)
heavy: QVQLVQSGAEVKKPGSSVKVSCKASGGTFSNYWMHWVRQAPGQGLEWMGATYRGHSDTYYNQKFKGRVTITADKSTSTAYMELSSLRSEDTAVYYCARGAIYHGYDVLDNWGQGTLVTVSSASTKGPSVFPLAPSSKSTSGGTAALGCLVKDYFPEPVTVSWNSGALTSGVHTFPAVLQSSGLYSLSSVVTVPSSSLGTQTYICNVNHKPSNTKVDKKVEPKSC
light: DIQMTQSPSSLSASVGDRVTITCSASQDISNYLNWYQQKPGKAPKLLIYYTSNIHSGVPSRFSGSGSGTDFTLTISSLQPEDFATYYCQQYKKMPWTFGQGTKLEIKRTVAAPSVFIFPPSDEQLKSGTASVVCLLNNFYPREAKVQWKVDNALQSGNSQESVTEQDSKDSTYSLSSTLTLSKADYEKHKVYACEVTHQGLSSPVTKSFNRGEC
B7: AB200-R1a-Fab_Vk24 (antibody)
heavy: QVQLVQSGAEVKKPGSSVKVSCKASGGTFSNYWMHWVRQAPGQGLEWMGATYRGHSDTYYNQKFKGRVTITADKSTSTAYMELSSLRSEDTAVYYCARGAIYHGYDVLDNWGQGTLVTVSSASTKGPSVFPLAPSSKSTSGGTAALGCLVKDYFPEPVTVSWNSGALTSGVHTFPAVLQSSGLYSLSSVVTVPSSSLGTQTYICNVNHKPSNTKVDKKVEPKSC
light: DIQMTQSPSSLSASVGDRVTITCSASNSISNYLNWYQQKPGKAPKLLIYYASNLHSGVPSRFSGSGSGTDFTLTISSLQPEDFATYYCQQYRKLPWTFGQGTKLEIKRTVAAPSVFIFPPSDEQLKSGTASVVCLLNNFYPREAKVQWKVDNALQSGNSQESVTEQDSKDSTYSLSSTLTLSKADYEKHKVYACEVTHQGLSSPVTKSFNRGEC
B8: AB216: humanized anti-BCMA antibody, heavy chain SEQ ID NO: 100, light chain SEQ ID NO: 101 (antibody)
heavy: QVQLVQSGAEVKKPGSSVKVSCKASGGTFSNYWIHWVRQAPGQGLEWMGATYRIQSDTYYNQKYKSRVTITADKSTSTAYMELSSLRSEDTAVYYCARGAVYHGYDVIDNWGQGTLVTVSS[omitted - human IgG1 constant region]
light: DIQMTQSPSSLSASVGDRVTITCRASQSISSYINWYQQKPGKAPKLLIYATSNLQIGVPSRFSGSGSGTDFTLTISSLQPEDFATYYCQQYRRLPWSFGQGTKLEIKRTVAAPSVFIFPPSDEQLKSGTASVVCLLNNFYPREAKVQWKVDNALQSGNSQESVTEQDSKDSTYSLSSTLTLSKADYEKHKVYACEVTHQGLSSPVTKSFNRGEC
B9: AB213: humanized anti-BCMA antibody, heavy chain SEQ ID NO: 94, light chain SEQ ID NO: 95 (antibody)
heavy: QVQLVQSGAEVKKPGSSVKVSCKASGGTFTNYWIHWVRQAPGQGLEWMGGTYRSHSTTYYNQKFKSRVTITADKSTSTAYMELSSLRSEDTAVYYCARGAVYHGYDVIDNWGQGTLVTVSS[omitted - human IgG1 constant region]
light: DIQMTQSPSSLSASVGDRVTITCRASQSISSYLNWYQQKPGKAPKLLIYATSNLQIGVPSRFSGSGSGTDFTLTISSLQPEDFATYYCQQFRRLPWTFGQGTKLEIKRTVAAPSVFIFPPSDEQLKSGTASVVCLLNNFYPREAKVQWKVDNALQSGNSQESVTEQDSKDSTYSLSSTLTLSKADYEKHKVYACEVTHQGLSSPVTKSFNRGEC

Experiment: ThermoFluor thermostability (Tm)
Assay type: physicochemical
Conditions: Light chain screening Round 1; Fab, paired with heavy chain AB200_D99H

**Q.** Which Tm does the source give for B1 here?
**A.** 81.44 °C

**Q.** Which Tm does the source give for B2 here?
**A.** 83.86 °C

**Q.** Which Tm does the source give for B3 here?
**A.** 82.03 °C

**Q.** For B4, which Tm is on record?
**A.** 80.80 °C

**Q.** With B5 as the molecule, how does the Tm read?
**A.** 84.15 °C

**Q.** Which Tm does the source give for B6 here?
**A.** 83.32 °C

**Q.** With B7 as the molecule, how does the Tm read?
**A.** 81.41 °C

Same assay, conditions: thermostability of selected clones

**Q.** For B8, which Tm is on record?
**A.** 78.4 °C

**Q.** Which Tm does the source give for B9 here?
**A.** 85.9 °C
